Assay results as given in article PMC4336329 (PLoS ONE, 2015).
Screen size: about 310,000 compounds; about 14,000 (4.5%) showed an effect of 50% or more. The effect is printed as a negative number. The list shows a part of the results.

target: human ether-à-go-go-related gene (hERG) potassium channel (human, UniProt Q12809); assay: primary screen, population patch clamp on CHO cells stably expressing hERG
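Also: peak tail current of the secondary pulse compared with the same well before compound.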

human ether-à-go-go-related gene (hERG) potassium channel, sequence (Q12809 whole entry, looked up): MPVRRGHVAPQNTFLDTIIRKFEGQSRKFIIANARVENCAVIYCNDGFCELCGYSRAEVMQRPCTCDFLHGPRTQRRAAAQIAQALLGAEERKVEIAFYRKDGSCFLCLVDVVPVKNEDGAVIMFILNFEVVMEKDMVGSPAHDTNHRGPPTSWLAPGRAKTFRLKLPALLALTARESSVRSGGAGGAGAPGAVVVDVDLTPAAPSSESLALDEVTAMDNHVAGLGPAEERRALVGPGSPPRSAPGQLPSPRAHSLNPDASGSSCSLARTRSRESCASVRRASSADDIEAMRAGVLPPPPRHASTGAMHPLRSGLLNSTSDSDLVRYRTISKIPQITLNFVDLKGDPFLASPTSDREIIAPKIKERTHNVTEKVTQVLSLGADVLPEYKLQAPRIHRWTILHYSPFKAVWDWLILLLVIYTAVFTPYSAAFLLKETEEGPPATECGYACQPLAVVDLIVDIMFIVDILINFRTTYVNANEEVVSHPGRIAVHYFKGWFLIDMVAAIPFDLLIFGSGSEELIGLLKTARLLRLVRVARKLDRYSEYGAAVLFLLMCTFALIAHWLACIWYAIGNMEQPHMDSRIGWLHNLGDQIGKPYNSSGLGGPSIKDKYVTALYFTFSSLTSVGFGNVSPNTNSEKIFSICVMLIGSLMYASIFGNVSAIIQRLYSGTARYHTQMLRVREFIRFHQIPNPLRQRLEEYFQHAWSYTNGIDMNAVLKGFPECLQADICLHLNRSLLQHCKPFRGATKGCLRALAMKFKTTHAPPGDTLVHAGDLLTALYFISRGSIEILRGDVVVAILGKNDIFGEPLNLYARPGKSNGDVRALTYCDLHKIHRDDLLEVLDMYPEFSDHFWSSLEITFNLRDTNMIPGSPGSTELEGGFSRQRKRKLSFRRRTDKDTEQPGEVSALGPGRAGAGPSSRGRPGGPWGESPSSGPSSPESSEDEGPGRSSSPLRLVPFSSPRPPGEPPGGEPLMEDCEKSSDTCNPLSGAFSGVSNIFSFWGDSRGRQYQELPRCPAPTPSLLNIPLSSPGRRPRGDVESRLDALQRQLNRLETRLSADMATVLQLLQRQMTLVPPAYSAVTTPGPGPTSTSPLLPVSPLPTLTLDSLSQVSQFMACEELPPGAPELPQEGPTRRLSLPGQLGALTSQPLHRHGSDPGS

Row | SMILES | hERG current change (%, negative = inhibition) at 10uM [%]
1 | Cc1cccc(-n2c(SCC(=O)NCc3ccco3)nnc2-c2ccco2)c1 | -75.7
2 | Cc1ccc2[nH]c3c(c2c1)CCNC3=O | 4.86
3 | O=C(CSc1nc2ccccc2c(=O)n1-c1ccc(OC(F)F)cc1)NCc1cccs1 | -9.5
4 | O=C(CCN1C(=O)c2ccccc2C1=O)Oc1ccc2ccccc2c1 | 3.5
5 | O=C(Cc1ncc(C(F)(F)F)cc1Cl)NCCc1ccccc1 | 10.2
6 | C#Cc1ccc([C@H]2C=C(C(=O)OCC=C)O[C@@H](OCCCCO)C2)cc1 | -17.1
7 | CCOC(=O)C1CCCN(S(=O)(=O)c2ccc3c(c2)C(C)(C)C(=O)N3C)C1 (stereo not shown) | 7.18
8 | O=C(COC(=O)c1ccc(=O)[nH]c1)Nc1cccc(S(=O)(=O)N2CCOCC2)c1 | 18.9
9 | CN1CCN(c2ccc(CNC(=O)c3ccc4c(c3)OCCO4)cc2)CC1 | -3.43
10 | Cc1cc(C)nc(N(C#N)CC(=O)N(c2ccccc2)C(C)C)n1 | 7.15
11 | CC(C)(C)c1ccc(C(CC(=O)O)NC(=O)CSc2ccccc2)cc1 (stereo not shown) | 26.4
12 | N#C/C(=C\N1CCCCC1)S(=O)(=O)c1ccc(Cl)cc1 | 15.6
13 | OCCN(CCCn1c(C(F)(F)F)nc2ccccc21)c1nc(CN2CCCCC2)cs1 | -19
14 | O=C(NCCCn1ccnc1)/C(=C\c1cccnc1)NC(=O)c1ccccc1Br | 5.24
15 | Cn1cccc1/C=C1\CC(C(C)(C)C)C/C(=C\c2cccn2C)C1=O (stereo not shown) | -10.4
16 | COc1cc2c(cc1OC)C(c1cc3cccc(C)c3[nH]c1=O)N(C(=O)c1ccco1)CC2 (stereo not shown) | 0.325
17 | Cc1cc(C)nc(Nc2ccc(N3CCCC3)cc2)n1 | -5.79
18 | Cc1ccc(C(=O)NCCc2ccc(S(N)(=O)=O)cc2)o1 | 16.1
19 | Cl.Fc1ccc2c(c1)nnn2C1CCN(Cc2nnnn2CCc2ccccc2)CC1 | -61.3
20 | CC(C)CNC(=O)CSc1nnc(CN2CCCCCC2=O)n1-c1ccccn1 | -5.7
21 | CC(C)NS(=O)(=O)c1ccc(NC(=S)NC(=O)c2cccc([N+](=O)[O-])c2)cc1 | -46.4
22 | CN1CCN(S(=O)(=O)c2ccc(N3CCN(c4ccc(O)cc4)CC3)c([N+](=O)[O-])c2)CC1 | -24.4

Row | SMILES | hERG current change (%, negative = inhibition) at 10uM [%]
23 | CN(Cc1nnc(SCC(=O)NCCc2ccccc2)n1C)S(=O)(=O)c1ccccc1 | -21.6
24 | O=S(=O)(Nc1nc2ccccc2[nH]1)c1ccc(Cl)cc1 | -16
25 | O=S(=O)(CCSc1nc2ccccc2s1)c1nc2ccccc2s1 | -0.246
26 | CC(=O)c1cccc(S(=O)(=O)Nc2cccnc2)c1 | 11.9
27 | Cc1cccc(Nc2nnc(-c3ccc(C(=O)N4C[C@H]5C[C@H](C4)c4cccc(=O)n4C5)cc3)c3ccccc23)c1 | -10.2
28 | CCOCCc1nnc(NC(=O)c2cc(OC)c(OC)c(OC)c2)s1 | 5.98
29 | COc1ccc2c(c1OC)C(=O)OC2Nc1ccccn1 (stereo not shown) | 3.26
30 | CC(C)(C)c1ccc(C(=O)Nc2ccc(C=C(C#N)C#N)cc2)cc1 | 8.87
31 | CCCn1c(C)cc(C(=O)COc2ncnc3sccc23)c1C | -1.31
32 | COc1ccc(C(=O)N/N=C\c2coc3ccc(Cl)cc3c2=O)cc1 | 6.71
33 | O=C(COC(=O)c1cc([N+](=O)[O-])ccc1N1CCOCC1)Nc1ccc(Cl)cc1 | -28.2
34 | CCCCCCC(C)NC(=S)Nc1cc(S(=O)(=O)N(C)C)ccc1C (stereo not shown) | -2.15
35 | Cc1ccc(C(=O)Nc2ccccc2NC(=O)c2ccc(C)o2)o1 | -11.7
36 | Cc1cccc(C(=O)NC(=S)NNC(=O)c2ccc(Cl)cc2)c1 | 23.5
37 | O=C(COC(=O)c1ccccc1NC(=O)c1ccccc1)c1cccc([N+](=O)[O-])c1 | -1.2
38 | O=C(O)C1(c2ccccc2)CCN(S(=O)(=O)c2ccccc2)CC1 | 6.17
39 | CC(C)=CCN1CCN(Cc2cn[nH]c2C2CCCCC2)CC1CCO (stereo not shown) | 0.0652
40 | CCc1sc(C(=O)N2CCN(CC(=O)Nc3cccc(F)c3)CC2)cc1C | -65
41 | COC(=O)C1=CNC=C(C(=O)OC)C1c1ccc(Cl)cc1 | -8.91
42 | CN(Cc1ccccc1NS(=O)(=O)c1ccc2ccccc2c1)C1CCCCC1.Cl | 7.73
43 | O=C(c1ccc(Cl)cc1)C1CCN(C(=O)c2ccc(F)cc2)CC1 | -34.7
